PubChem BioAssay (Tox21)
The inconclusive results got no clear call from the source; some entries with a clear call stand among them for comparison. No potency is given beside an inconclusive call; the fits are too rough. Calls of active or inactive are those of the source. The call rests on the fitted dose curve; in most records, active means well fitted cell-killing curve with a large enough effect in the repeat runs; inconclusive means weak or mixed curves, or effect the other way; inactive means no such curve, though single readings can be large or run the other way.

Experiment: qHTS assay to identify small molecule agonists of the farnesoid-X-receptor (FXR) signaling pathway - cell viability counter screen (AID 743218); further: nearly all actives have a fitted effect of over 45% in size
Conditions: FXR-bla HEK293T viability, CellTiter-Glo luminescence, 16 h; viability change, negative = cytotoxic: at 62.6 µM (top of the series) unless noted
Text: U.S. Tox21 Program National Center for Advancing Translational Sciences [NCATS] NIH Chemical Genomics Center [NCGC] U.S. Environmental Protection Agency [EPA] National Institutes of Environmental Health Sciences [NIEHS] National Toxicology Program [NTP] U.S. Food and Drug Administration [FDA] Tox21 Assay Overview: The farnesoid-X-receptor (FXR), a nuclear hormone receptor, is highly expressed in liver, intestine, kidney and adrenal cortex. Natural ligands of FXR are the bile acids (Cholic acid, Chenodeoxy cholic acid etc). FXR is an important regulator of diverse metabolic pathways, including the bile acid homeostasis, lipid and glucose metabolisms. FXR regulates the expression of target genes by binding either as a monomer or as a heterodimer with the retinoid X receptor (RXR). Numerous studies have reported that FXR exerts protective function during cholestasis, diabetes, liver regeneration, and cancer. To identify compounds that activate FXR signaling, GeneBLAzer FXR-UAS-bla HEK 293T cell line (Invitrogen, Carlsbad, CA) containing a beta-lactamase reporter gene under the control of a UAS response element was used to screen the Tox21 10K compound library. The cytotoxicity of the Tox21 compound library against the FXR-bla cell line was tested in parallel by measuring the cell viability using CellTiter-Glo assay in the same wells.
Tox21 Assay Protocol Summary: FXR-bla cells were dispensed at 5000 cells/5uL/well in 1536-well black wall/clear bottom plates using a Multidrop Combi (Thermo Fisher Scientific, Waltham, MA) dispenser. After the assay plates were incubated at 37 C and 5% CO2 for 5 h, 23 nL of compounds dissolved in DMSO, positive controls or DMSO only was transferred to the assay plate by a Pintool station (Kalypsys, San Diego, CA). The assay plates were incubated at 37C for 16 h. After 1 uL of LiveBLAzerTM B/G FRET substrate was added using a Bioraptr Flying Reagent Dispenser (FRD) workstation (Beckman Coulter, Indianapolis, IN), the plates were incubated at room temperature for 2 h, and fluorescence intensity was measured by an Envision plate reader (PerkinElmer, Shelton, CT). For cell viability readout that measures cytotoxicity, 4uL/well of CellTiter-Glo reagent was added into the assay plates using a Bioraptr FRD. After 30 min incubation at room temperature, the luminescence intensity in the plates was measured using a ViewLux plate reader (PerkinElmer).
On the % scale 0 is the no-effect control and ±100 the full control effect; potency means the concentration at half of the fitted maximal effect; tags describe the fitted curve by direction and shape.

| SMILES | viability change, negative = cytotoxic | Potency |
| --- | --- | --- |
| CC/C=C\CCOC(=O)C(C)C | inactive: -0.292% |  |
| CC(C)NCC(O)COc1ccc(COCCOC(C)C)cc1 (stereo not given) |  | inconclusive [rising, partial curve, poor fit] |
| CC(C)(Oc1ccc(CCNC(=O)c2ccc(Cl)cc2)cc1)C(=O)O | inconclusive: -5.4% |  |
| CC(=O)Nc1ccccc1O | inactive: -1.3% |  |
| CCCC[N+](C)(CCCC)CCCC |  | inconclusive [rising, partial curve] |
| CCCCOCCOC(=O)COc1ccc(Cl)cc1Cl | inactive: 5.19% |  |
| CCOc1cc([N+](=O)[O-])c(OCC)cc1N1CCOCC1 | inactive: 0.343% |  |
| N=C(N=C(N)N)N1CCOCC1 |  | inconclusive [rising, partial curve, poor fit] |
| CCOC(=O)C1=NOC(c2ccccc2)(c2ccccc2)C1 |  | inconclusive [cytotoxic, full curve, poor fit] |
| CC1(C)Cc2cccc(N)c2O1 |  | inconclusive [rising, full curve, poor fit] |
| CC(=O)Nc1ccc(OCC(O)CNC(C)C)cc1 (stereo not given) | inactive: 10.3% |  |
| CCC[Si](OC)(OC)OC | inactive: -9.09% |  |
| CCCCCCCCCCCCC1CO1 (stereo not given) | inactive: -0.0896% |  |
| CC1(C)C2=CCCC(C)(C)[C@]23CC[C@H]1C3 |  | inconclusive [cytotoxic, single point] |
| CCOC(=O)C(=O)OCC | inactive: -0.675% |  |
| CC(=O)N[C@@H](CC(C)C)C(=O)O | inactive: 0.107% |  |
| CC(=O)[C@@]1(O)CC[C@H]2[C@@H]3C[C@H](C)C4=CC(=O)C=C[C@]4(C)[C@@]3(F)[C@@H](O)C[C@@]21C |  | inconclusive [cytotoxic, partial curve, poor fit] |
| CCO[Si](CC)(OCC)OCC |  | inconclusive [rising, partial curve, poor fit] |
| O=C1C(N(CO)C(=O)NCO)N(CO)C(=O)N1CO (stereo not given) |  | inactive |
| C=C1C[C@]23C[C@@]1(O)CC[C@H]2[C@@]12C=C[C@H](O)[C@@](C)(C(=O)O1)[C@H]2[C@@H]3C(=O)O |  | inconclusive [rising, partial curve, poor fit] |

| SMILES | viability change, negative = cytotoxic | Potency |
| --- | --- | --- |
| COc1cc(C(=S)N2CCOCC2)ccc1O | inconclusive: -44.7% [cytotoxic] |  |
| C#CC(O)CCCCC (stereo not given) | inactive: -2.19% [at 81.1 µM] |  |
| C1COCO1 | inactive: 0.58% |  |
| Cc1ccccc1C=O |  | inactive |
| CCCCC(CC)COC(=O)CCCCC(=O)OCC(CC)CCCC (stereo not given) |  | inconclusive [rising, full curve] |
| CCCCC1CCC(O)CC1 (stereo not given) |  | inconclusive [rising, full curve, poor fit] |
| O=S(=O)(O)c1cc(O)ccc1O |  | inconclusive [cytotoxic, full curve, poor fit] |
| CC1=C(C(=O)O)N2C(=O)[C@@H](NC(=O)[C@H](N)c3ccccc3)[C@H]2SC1 |  | inconclusive [rising, single point] |
| COc1cc(NS(=O)(=O)c2ccc(N)cc2)ncn1 | inactive: 6.66% |  |
| CC(=O)OC(C)=O |  | inconclusive [cytotoxic, full curve, poor fit] |
| [O-][n+]1ccc(Cl)cc1 | inactive: -10.4% [at 81.1 µM] |  |
| CC(C)C1CCC(O)CC1 (stereo not given) |  | inconclusive [rising, partial curve, poor fit] |
| CC(C)(O)C(=O)c1ccc(OCCO)cc1 |  | inconclusive [rising, full curve, poor fit] |
| C=CC(C)(O)CC/C=C(\C)CC (stereo not given) |  | inconclusive [rising, full curve, poor fit] |
| CC(=O)N[C@@H](CCC(N)=O)C(=O)O |  | inconclusive [rising, partial curve, poor fit] |
| C=CN1CCCCCC1=O | inactive: 15.3% |  |
| COc1ccc(C)cc1N |  | inactive |
| COC(=O)[C@@H]1CC2=CC(=O)CC[C@]2(C)[C@@]23O[C@@H]2C[C@@]2(C)[C@@H](CC[C@@]24CCC(=O)O4)[C@H]13 | inactive: -3.42% |  |
| CCCCCCCC1CCCC1=O (stereo not given) | inactive: 1.37% |  |
| CC/C=C\C#N | inconclusive: 41.7% |  |
